Source: the supplement of paper PMC12889115
Some of the results follow. No stated cut-off is given here; in the data, active = 25% or less and inactive = the rest. Repeats are few or missing, and single values can be far off.

Test system: Salmonella enterica serovar Typhimurium SL1344
Assay: intramacrophage bacterial GFP load (SAFIRE), percent of DMSO control (% of DMSO); higher = more intracellular bacteria (less inhibition)
Conditions: 25 µM; system: infected RAW 264.7 macrophages
Description: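 Secondary screen of the 553 primary hits at 25 µM. (i) S. Typhimurium SL1344 grown in Mueller-Hinton broth with 0.5 µg/mL polymyxin B, OD600 read after 18 h. (ii) SAFIRE assay: RAW 264.7 macrophages infected with S. Typhimurium sifB::gfp (MOI 30); compound added 2 h post-infection; cells fixed at 18 h; GFP-positive pixel fraction per macrophage imaged by confocal microscopy and expressed as % of DMSO control.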
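Further: compounds tested were the hits of an earlier 50 µM broth growth screen of a drug-like diversity library run with polymyxin B.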

Row | SMILES | intramacrophage bacterial GFP load
1 | CCN1C(=O)CC(CC(=O)N(CC2CCC2)CC2CCCO2)(c2cccc(C(F)(F)F)c2)C1=O (stereo not given) | inactive: 101
2 | CN(Cc1ccccc1)C1(C(=O)NCCc2c[nH]cn2)Cc2ccccc2C1 | active: 10.4
3 | COc1cc(C(=O)N(Cc2cccc(OCCc3cccs3)c2)C2CCCC2)cc(OC)c1OC | inactive: 109
4 | Cc1c(C(=O)NCC2COc3ccccc3O2)cnn1-c1ncc2c(n1)-c1ccccc1CCC2 (stereo not given) | inactive: 129
5 | COc1cccc(C2c3[nH]c4ccccc4c3CCN2Cc2ccco2)c1OC (stereo not given) | inactive: 56.3
6 | CCOC(=O)C1(CCCc2ccccc2)CCN(C(=O)C2CC23CCC3)CC1 (stereo not given) | inactive: 42.9
7 | O=C(c1cc2ccccc2s1)N1CCCC(Nc2ccc3c(c2)OCCO3)C1 (stereo not given) | inactive: 57.9
8 | CN(CC1CCCCO1)C(=O)c1cn(Cc2ccc(Cl)cc2)nn1 (stereo not given) | inactive: 41.2
9 | O=C(NCC1OCCc2ccccc21)c1coc(COc2ccccc2)n1 (stereo not given) | inactive: 139
10 | Cc1ccccc1CN1C[C@@H]2C[C@@H](c3cc(CC(C)C)[nH]n3)N3CCC[C@@]23C1=O | active: 8.72
11 | O=C(CC1(c2ccc(-c3ccccc3)cc2)CC(=O)N(C2CC2)C1=O)N(CCO)Cc1ccccc1 (stereo not given) | inactive: 95.6
12 | Cc1nc(C(=O)NCc2nc(-c3ccccc3NC(=O)CC3CCCC3)oc2C)cs1 | inactive: 130
13 | C=CCC(=O)N1CCCC1C(=O)Nc1ccc(-c2cccc(OC)c2)cc1 (stereo not given) | inactive: 138
14 | CCOC(=O)C1(Cc2ccc(F)cc2)CCCN(C(=O)c2cn3c(C)cccc3n2)C1 (stereo not given) | inactive: 51.6
15 | CN(Cc1ccccc1)C(=O)c1cn(CCCc2ccccc2)nn1 | inactive: 125
16 | CC(=O)Nc1ccc(C(=O)N2CCCC(Nc3cccc(F)c3)C2)cc1 (stereo not given) | inactive: 184
17 | c1ccc(-c2ccc(-c3n[nH]cc3CN3CCN(c4ncccn4)CC3)cc2)cc1 | active: 17.2
18 | CCC1CN(C(=O)c2cccc(Cn3cccn3)c2)Cc2ccc(Cl)cc2O1 (stereo not given) | active: 18.7
19 | CN(Cc1ccc(F)cc1)c1ccc(OCC(=O)NCC2(N3CCOCC3)CCCCC2)nn1 | inactive: 50.4
20 | COc1ccc(-c2cnnc(NCc3c[nH]nc3-c3ccc(F)cc3)n2)cc1OC | inactive: 160
21 | CCCN(CC1CC1)C(=O)CC1(c2ccc(-c3ccccc3)cc2)CC(=O)N(C2CC2)C1=O (stereo not given) | inactive: 49.3
22 | CCN(Cc1ccccc1)Cc1cnc(S(=O)(=O)C(C)C)n1CCc1ccccc1 | inactive: 77.7
23 | Cc1ccc2occ(CN3CCOc4ccc(C(O)CCc5ccccc5)cc4C3)c(=O)c2c1 (stereo not given) | inactive: 75.5
24 | O=C(c1cccc(F)c1)N(Cc1ccncc1)Cc1cccc(OCCc2ccc(F)cc2)c1 | inactive: 104
25 | O=C(CCc1nnc(-c2ccc(-c3ccccc3)cc2)o1)N1CCCCCCC1 | inactive: 102
26 | CN1C(=O)CC(CC(=O)N(CC2CC2)CC2CCCO2)(c2ccc(-c3ccccc3)cc2)C1=O (stereo not given) | inactive: 58.2
27 | COc1ccc(OC)c(-c2cc(Cl)c3c(c2)CC(CNC(=O)Cc2cn4ccsc4n2)O3)c1 (stereo not given) | inactive: 136
28 | CCOC(=O)C1(C/C=C/c2ccccc2)CCCN(Cc2ccncc2)C1 (stereo not given) | active: 17.9
29 | Cc1cccc(-c2cnc(-c3ccncc3)nc2C2CCN(C(=O)c3cc(CC(C)C)on3)CC2)c1 | inactive: 60.8
30 | CCOC(=O)N1CCN(c2nncc(-c3ccc4ccccc4c3)n2)CC1 | inactive: 104
